Screen size: about 1,200 compounds; about 30 (2%) were called active. Roughly 23% stayed inconclusive and do not appear here. Calls follow the shape of the dose curve; as a rule, active = well fitted inhibition curve with a large enough effect; inconclusive = small, poorly fitted or top-dose-only effect; inactive = flat fitted curve, though single readings scatter. The list shows a part of the results.
% is scaled to controls: 0 for no effect and ±100 for the full control effect; potency is read from the fitted curve at half-maximal effect.

This experiment concerns the target Single-stranded DNA cytosine deaminase (Homo sapiens) (UniProt Q9GZX7). The experiment is described as follows: Confirmatory qHTS assay for inhibitors of Activation Induced Cytidine Deaminase (AID): AID signals. The conditions noted are these: recombinant AID, FRET deamination/UDG coupled fluorescence, 4 h; series mostly up to 115 µM; activity, negative = inhibition: at the top concentration. The essentials: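 Read 1 (AID) was measured at 540 ex/590 em after a 30 min NaOH step. The reaction was AID (1 uM, 4/3x stock) with UDG, compound at final 7.32 nM - 114 uM for 10 min, then DJC20/DJC23 substrate for 4 hr at room temperature. A UDG read at 560/665 serves as counterscreen.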
Sequence of UniProt Q9GZX7 (Q9GZX7 whole entry, looked up): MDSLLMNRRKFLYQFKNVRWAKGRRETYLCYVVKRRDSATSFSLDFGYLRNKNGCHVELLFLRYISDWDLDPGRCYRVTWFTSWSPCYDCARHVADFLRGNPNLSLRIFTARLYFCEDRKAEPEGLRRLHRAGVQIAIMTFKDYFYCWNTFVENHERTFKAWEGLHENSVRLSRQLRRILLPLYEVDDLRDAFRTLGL
In the case of `Cc1ccc(S(=O)(=O)c2nnn3c2nc(N2CCCCC2)c2sccc23)cc1`, the “activity, negative = inhibition” value is inactive: -17.3%.

`Cc1ccc(C(=O)/C=C/c2cn(CC(O)CN3CCCCCC3)c3ccccc23)cc1` (stereo not drawn): the “activity, negative = inhibition” value is inactive: -11.7%. With `CC(=O)Nc1ccc(S(=O)(=O)Nc2nc3n(n2)C(c2ccccc2)C=C(c2ccc(Cl)cc2)N3)cc1` (stereo not drawn), the Potency was active: 39.8 µM. For the compound `COc1ccccc1CN(Cc1ccco1)c1cnc(S(C)(=O)=O)nc1C(=O)Nc1ccccc1Cl`, the “activity, negative = inhibition” value was inactive: -2.2%. `CCCn1c(SCc2nc(-c3ccccc3OCC)no2)nnc1-c1ccc(Cl)cc1`: the “activity, negative = inhibition” value is inactive: -16.7%. Take `CN(c1ccc(F)cc1)S(=O)(=O)N1CCCC(C(=O)NCc2cccc(Br)c2)C1` (stereo not drawn): the “activity, negative = inhibition” value is inactive: -8.21%.

As to `O=C(C1CCC(Cn2c(=O)c3sccc3n(Cc3ccccc3)c2=O)CC1)N1CCCCC1` (stereo not drawn), the “activity, negative = inhibition” value was inactive: -13.8%.

As to `Cc1cccc(Cn2cc(C(=O)c3ccccc3)c(=O)c3cc4c(cc32)OCO4)c1`, the “activity, negative = inhibition” value was inactive: -23.8%.

`COc1cc(OC)c(N(C)C(=O)c2nn(C)c3c2CSc2ccccc2-3)cc1Cl`: the “activity, negative = inhibition” value is inactive: -7.59%. Same read-out and setting: with `O=C(NCC(c1ccccc1)c1ccccc1)c1nn(-c2ccccc2Cl)nc1CO` the figure was inactive: -13.2%; with `COc1ccc(C(=O)c2cn(Cc3cccc(C)c3)c3cc4c(cc3c2=O)OCCO4)cc1OC`, inactive: -16.1%; with `CCN(CC)CCCNC(=O)c1ccc2c(c1)sc1nc(-c3ccc(C)cc3)cn12`, inactive: -24.7%. Take `COc1ccccc1-c1nn(CCC(=O)Nc2ccc(C)cc2)c2nc(C)cc(C)c12`: the “activity, negative = inhibition” value was inactive: -5.06%. As to `COc1ccc(OCc2nc3ccccc3n2Cc2ccc(C(C)(C)C)cc2)cc1`, the “activity, negative = inhibition” value is inactive: -23.3%.

For the compound `Cc1ccc(-n2ncc(C(=O)NCCN3CCC(Cc4ccccc4)CC3)c2C2CCN(C(=O)OC(C)(C)C)CC2)cc1`, the “activity, negative = inhibition” value was inactive: -12.9%.

As to `COc1cc2c(cc1OC)C(COc1cc(C)cc(C)c1)N(C(=O)C(C)(C)C)CC2` (stereo not drawn), the “activity, negative = inhibition” value was inactive: -4.65%. The same measure, in the same setting: with `CCCCN(Cc1ccccc1)C(=O)CN(C)S(=O)(=O)c1ccc2c(c1)c(=O)n(C)c(=O)n2C` the figure was inactive: -1.56%. Turning to `O=C(c1ccc2c(c1)OCO2)c1cn(Cc2ccc(F)cc2)c2ccccc2c1=O`, the “activity, negative = inhibition” value was inactive: -19.9%. Take `Cc1ccc(NC(=O)C2CCCN(S(=O)(=O)c3cccc4cccnc34)C2)cc1Cl` (stereo not drawn): the “activity, negative = inhibition” value is inactive: -27.7%.

Take `COc1ccc(Br)cc1CNC(=O)c1cc2n(n1)CCCN(Cc1ccc(C)cc1)C2=O`: the “activity, negative = inhibition” value was inactive: -4.58%. As to `CCC(C(=O)Nc1cc(OC)cc(OC)c1)n1nc(-c2ccc(C)c(C)c2)ccc1=O` (stereo not drawn), the “activity, negative = inhibition” value is inactive: -19.2%. On to `CCC(Sc1nncn2c1cc1occc12)C(=O)Nc1ccc(C)c(Cl)c1` (stereo not drawn), for which the “activity, negative = inhibition” value was inactive: -3.07%.

In the case of `Cc1ccc(-c2noc(CN(C(=O)COc3cc(C)cc(C)c3C)C(C)C)n2)cc1`, the “activity, negative = inhibition” value is inactive: -2.39%.

Regarding `CCOc1ccccc1CNC(=O)c1cccn1-c1nnc(N2CCCCC2)s1`, the “activity, negative = inhibition” value is inactive: -15.3%.

Consider `C=Cc1ccc(CSc2nc(-c3ccc(C)cc3)nc3c2Cc2c(CO)cnc(C)c2O3)cc1`, for which the “activity, negative = inhibition” value was inactive: -23.5%. As to `COc1cc2ccccc2cc1C(=O)N1CCN(c2nc3ccc(F)cc3s2)CC1`, the “activity, negative = inhibition” value is inactive: -19.5%. For the compound `Cc1ccc(CN(Cc2ccco2)C(=O)COc2ccc(Cl)cc2)o1`, the “activity, negative = inhibition” value was inactive: -4.17%.

With `Cc1ccc2onc(CC(=O)N3CCN(c4cccc(C)c4C)CC3)c2c1`, the “activity, negative = inhibition” value is inactive: -10.3%. For `COc1ccc(-c2nc(Cn3c(SCc4ccc(F)cc4)nc4cccnc43)c(C)o2)cc1`, the “activity, negative = inhibition” value was inactive: -8.87%. Regarding `CCN(CC)CCNC(=O)c1ccc2c(=O)n3nc(Nc4ccccc4)sc3nc2c1`, the “activity, negative = inhibition” value was inactive: -15.6%. On the same count and under the same terms, the result for `COc1ccccc1N1CCN(C(=O)c2cc3ccc4ccc(C)[nH]c4c3n2)CC1` reads inactive: 3.08%; that for `CCOc1ccc(NC(=O)CCS(=O)(=O)c2ccc(Br)cc2)cc1`, inactive: -1.55%; that for `CC(=O)N1CCCc2cc(S(=O)(=O)N3CCCC(C(=O)N4CCN(c5cc(C)ccc5C)CC4)C3)ccc21` (stereo not drawn), inactive: -13%. Same read-out and setting: with `CCOc1ccc(Nc2c(S(=O)(=O)c3ccccc3)cnc3ccccc23)cc1` the figure was inactive: -20.5%; with `COc1ccc(OC)c(CNC(=O)CSc2c3c(nc4cc(Cl)ccc24)CCCC3)c1`, inactive: -3.21%; with `Cc1ccc(CSC2=Nc3ccccc3C3=NC(CC(=O)NCc4ccc5c(c4)OCO5)C(=O)N23)cc1` (stereo not drawn), inactive: -18%. As for `COc1ccc(OC)c(NC(=O)Cn2c(=O)cc(C)c3c(C)nn(-c4cccc(Cl)c4C)c32)c1`, the “activity, negative = inhibition” value is inactive: -25%. For the compound `O=S1(=O)c2ccccc2N(Cc2ccc(Cl)cc2)c2ccccc21`, the “activity, negative = inhibition” value was inactive: -8.91%.

For `O=C(NCCc1ccc(Cl)cc1)c1ccc2c(c1)N(Cc1ccc(Cl)cc1)C(=O)CS2`, the “activity, negative = inhibition” value was inactive: -4.7%. For `COc1cccc(C(=O)Nc2ccc3oc(-c4cccc5c(Br)cccc45)nc3c2)c1`, the “activity, negative = inhibition” value was inactive: -22.2%.

For `N#C/C(=C\c1ccc(-c2cc(Cl)ccc2Cl)o1)C(=O)Nc1ccccc1C(=O)O`, the Potency was active: 28.2 µM.

`Cc1cc(C)c(NC(=O)CSc2ncc(S(=O)(=O)c3ccc(C(C)(C)C)cc3)c(=O)[nH]2)c(C)c1`: the “activity, negative = inhibition” value is inactive: -9.91%.

With `Cc1ccc(Cl)cc1NC(=O)CSc1nc(C)c(C)c(C)c1C#N`, the “activity, negative = inhibition” value was inactive: -0.0381%.

With `Cc1ccc(C2=NN(CC(=O)NCCN(CC(C)C)CC(C)C)C(=O)CC2)cc1`, the “activity, negative = inhibition” value is inactive: -12.6%. `CC(C)n1c(SCC(=O)Nc2ccc(F)cc2)nc2c(oc3ccccc32)c1=O`: the “activity, negative = inhibition” value is inactive: -9.08%. Still for that read-out and setting: the result for `CCN(c1cccc(C)c1)S(=O)(=O)c1nnc(NC(=O)c2ccccc2Cl)s1` reads inactive: -16.9%; that for `COc1ccc(-c2cn3cccnc3n2)cc1NC(=O)c1cc(C)cc(C)c1`, inactive: -8.96%; that for `Cc1cc(Cl)ccc1OCC(=O)N(Cc1ccco1)Cc1ccccc1F`, inactive: -5.53%.

For `COc1ccc(NCc2cccn2-c2nnc(N3CCCCCC3)s2)cc1`, the “activity, negative = inhibition” value is inactive: -9.42%. With `CC(=O)c1ccc(NC(=O)C2CCN(c3nnc(C)c4c(C)n(-c5ccccc5)nc34)CC2)cc1`, the “activity, negative = inhibition” value was inactive: -29.1%. On to `CCCCn1c(CNC(=O)C23CC4CC(CC(C4)C2)C3)nnc1SCC(=O)Nc1ccc(C)cc1`, for which the “activity, negative = inhibition” value was inactive: -19.3%. Turning to `COc1ccc(C(=O)c2cn(Cc3ccccc3F)c3cc4c(cc3c2=O)OCCO4)cc1OC`, the “activity, negative = inhibition” value was inactive: -18.9%. In the case of `COc1ccc(-c2csc3nc(-c4ccc(C)cc4)oc(=O)c23)cc1OC`, the “activity, negative = inhibition” value is inactive: -17.6%. Regarding `CCOc1ccc(NC(=O)[C@@H](c2ccccc2)N2Cc3ccccc3C2=O)cc1`, the “activity, negative = inhibition” value is inactive: -12%. On to `COc1cccc(N2CCN(C(=O)c3ccc4c(Cl)c5c(nc4c3)CCCC5)CC2)c1`, for which the “activity, negative = inhibition” value is inactive: -22.5%. The same measure, in the same setting: the result for `Cc1ccc(Nc2c3c(nc4nc(-c5cccs5)nn24)CCCC3)cc1F` reads inactive: -24.6%; that for `COc1ccc(N2C(=O)CSC23C(=O)N(Cc2cccc(C(F)(F)F)c2)c2ccccc23)cc1` (stereo not drawn), inactive: -22.2%. With `CC(=O)[C@]1(O)Cc2c(O)c3c(c(O)c2[C@@H](O[C@H]2C[C@H](N)[C@H](O)[C@H](C)O2)C1)C(=O)c1ccccc1C3=O`, the Potency is active: 5.62 µM.

(Values after PubChem BioAssay AID1347434 (National Center for Advancing Translational Sciences (NCATS), 2020).)
